Several values for one entry are separate records, joined by “and”; a condition that tells them apart may be missing. Equal entries are not always repeated. Among all 120,000 compounds or so, about 5,300 (4.4%) were called active. Inconclusive results, whose numbers are uncertain, are shown with a selection of clear calls. Calls come from the whole dose curve; as a rule, active = well fitted inhibition curve with a large enough effect; inconclusive = small, poorly fitted or top-dose-only effect; inactive = no such curve, though single readings can be large or run the other way. Potencies beside an inconclusive call are fits to weak or partial responses and may not hold up.
Experiment: qHTS Primary assay for Inhibitors of Plasmodium falciparum Dd2 growth in vitro; note: nearly all actives have a fitted effect of over 65% in size;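 for activity, negative = inhibition: plate controls were DMSO vehicle for no effect and reference drug for full effect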
Settings: P. falciparum Dd2 growth, SYBR Green, 72 h; activity, negative = inhibition: at 28.9 µM (top of the series) unless noted; series mostly up to 28.9 µM
Outline: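 Readout: SYBR Green fluorescence, 485 nm excitation, 535 nm emission, after ~16 h lysis at 37C. Before that, Dd2-infected red cells (2.5% hematocrit) grew 72 h with compound, 29 uM top final concentration.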
Potency is the fitted concentration of half-maximal effect; tags give direction and shape of the fitted curve.

Row | Structure (SMILES) | activity, negative = inhibition | Potency | outcome
1 | O=C1Nc2ccccc2CC12CN(Cc1cscn1)C2 | inactive: 9.67% [at 44.1 µM] |  | 
2 | COc1cccc(NC(=O)c2oc3ccc(S(=O)(=O)N4CCCCCC4)cc3c2C)c1 |  | inconclusive: 17.8 µM [inhibitor, single point] | 
3 | CC(C)(C)OC(=O)N1CCC(c2c(C(=O)NCCN3CCOCC3)cnn2-c2cccc(Cl)c2)CC1 |  | active: 10 µM | 
4 | CC1CCN([C@@H]2[C@H](O)[C@H](CO)O[C@@H]2CN(Cc2ccc(F)cc2)Cc2ccc(F)cc2)CC1 |  | inconclusive: 1.58 µM [inhibitor, partial curve, poor fit] | 
5 | O=C(Cn1c(=O)c(CNc2ccccc2)cc2cc3c(cc21)OCCO3)Nc1ccccc1Cl |  | inconclusive: 10 µM [inhibitor, single point] | 
6 | O=C1NC(=NC2CCCC2)C2(CCN(CC3CCCCC3)C2)N1c1cccnc1 (centres undefined) |  | inconclusive: 11.2 µM [inhibitor, single point] | 
7 | O=C(Nc1ccccc1)N1CCC(c2nn(-c3ccc(F)cc3)c(=O)[nH]2)CC1 |  |  | inactive
8 | Cc1ccc(C(=O)Nc2ccc3c(N4CCCCC4)ncnc3c2)s1 |  | active: 5.01 µM | 
9 | Cn1c(C(=O)Nc2ccc3c(c2)OCO3)cc2c1CCN(Cc1cccc(F)c1)C2 |  | inconclusive: 1.26 µM [inhibitor, partial curve, poor fit] | 
10 | CCc1ccc(NC(=O)COc2ccc(-c3nnc4n3CCCC4)cc2)cc1 |  | active: 3.98 µM | 
11 | Cc1ccc(C)c(NC(=O)Cn2c(-c3ccccc3)nc(C)cc2=O)c1 |  | inconclusive: 0.891 µM [inhibitor, partial curve, poor fit] | 
12 | c1cc(-c2noc([C@@H]3CCCN3C3CCOCC3)n2)cc(N2CCCC2)n1 |  | inconclusive: 31.6 µM [inhibitor, single point] | 
13 | O=C(O)C1=NOC2CN(C(=O)C3CCCCC3)CC12 (centres undefined) | inactive: -7.21% [at 44.1 µM] |  | 
14 | Cc1cccc(NC(=O)CSc2nc3n[nH]c(C)c3c(=N)n2-c2cccc(Cl)c2)c1 |  | inconclusive: 17.8 µM [inhibitor, single point] | 
15 | CSCC(=O)N[C@H]1CCN2C(=O)c3cc(-c4ccsc4)ccc3NC(=O)[C@H]12 | inactive: -8.96% [at 44.1 µM] |  | 
16 | COc1ccc(NC(=O)[C@@H]2C[C@H](c3ccc(F)cc3)N(Cc3ccccc3Cl)C2)cn1 |  | inconclusive: 0.562 µM [inhibitor, partial curve, poor fit] | 
17 | CCOc1ccc(N(Cc2ccccc2)C(=O)c2nc(SC)ncc2Cl)cc1 |  | inconclusive: 14.1 µM [inhibitor, single point] | 
18 | CCC(=O)N1CCc2[nH]nc(C(=O)NCCCc3ccccc3)c2C1 |  | inconclusive: 17.8 µM [inhibitor, single point] | 
19 | CCCCOc1ccc(C(=O)NCCc2sc3nc(-c4ccc(OC)cc4)nn3c2C)cc1 |  | inconclusive: 17.8 µM [inhibitor, single point] | 
20 | CCN(CC)c1nn2c(=O)c(C(=O)NCCc3ccccc3C)cnc2s1 | inactive: 7.23% |  | 

Row | Structure (SMILES) | activity, negative = inhibition | Potency | outcome
21 | O=C(c1cc2c(s1)CCC(C(=O)N1CCN(C3CCCC3)CC1)C2)N1CCCCCC1 (centres undefined) |  | inconclusive: 11.2 µM [inhibitor, single point] | 
22 | CCOc1ccc(N(C)C(=O)C2CCN(S(=O)(=O)c3c(C)noc3/C=C/c3ccc(C)cc3)CC2)cc1 |  | inconclusive: 0.891 µM [inhibitor, single point] | 
23 | O=C1NC(=NC2CCCC2)C2(CCN(Cc3ccsc3)C2)N1c1cc(F)cc(F)c1 (centres undefined) |  | inconclusive: 4.47 µM [inhibitor, partial curve, poor fit] | 
24 | Fc1ccccc1N1CCN(c2ncnc3onc(-c4ccc(Cl)cc4)c23)CC1 |  | inconclusive: 11.2 µM [inhibitor, partial curve, poor fit] | 
25 | COc1ccc(Cl)cc1NC(=O)CSc1nc2c(oc3ccccc32)c(=O)n1Cc1ccco1 |  | inconclusive: 3.16 µM [inhibitor, single point] | 
26 | O=C(NCc1cccnc1)C1CN(S(=O)(=O)C2CC2)CC12CCCCC2 (centres undefined) |  | inconclusive: 20 µM [inhibitor, single point] | 
27 | Cc1cccc(-c2nc3scc(CCNS(=O)(=O)c4ccc(F)c(C(F)(F)F)c4)n3n2)c1 |  | inconclusive: 11.2 µM [inhibitor, single point] | 
28 | Cc1ccc(C(=O)Nc2ccc(C(=O)O)cc2)cc1S(=O)(=O)N1CCC(C)CC1 |  |  | inactive
29 | CC(C)(C)CC(=O)N1CCC2(CC1)C(=O)N(CC(=O)Nc1ccc(F)cc1)CN2c1ccccc1 |  | inconclusive: 0.501 µM [inhibitor, full curve] | 
30 | O=C(NC1CCCC1)c1ccc2c(c1)n(Cc1cccc(F)c1)c(=O)c1ccnn12 |  | inconclusive: 2.24 µM [inhibitor, full curve, poor fit] | 
31 | O=C1CC(c2ccccc2)N(C(=O)C2CC2)CCCN(S(=O)(=O)c2cccs2)CCN1 (centres undefined) |  | inconclusive: 17.8 µM [inhibitor, single point] | 
32 | O=C1Nc2ccccc2CC12CCN(Cc1ccc(C(F)(F)F)cc1)CC2 |  | inconclusive: 8.91 µM [inhibitor, partial curve] and inconclusive: 11.2 µM [inhibitor, single point] | 
33 | Cn1nc(C(=O)NC2CCN(c3cc(-c4cccs4)[nH]n3)C2)c2ccccc21 (centres undefined) |  | inconclusive: 2 µM [inhibitor, partial curve, poor fit] | 
34 | CN(C)C(=O)c1nc(-c2ccc(Cl)cc2)c2ccccn12 | inactive: -8.9% [at 44.1 µM] |  | 
35 | CCc1noc(-c2cccn3c(CNC(=O)c4cc(C)cc(C)c4)nnc23)n1 |  | inconclusive: 11.2 µM [inhibitor, single point] | 
36 | CCCCCSc1nnc2c(n1)[nH]c1c(C)cccc12 |  | active: 3.98 µM | 
37 | CCCNC(=O)c1cnn(-c2ccc(C)c(C)c2)c1C1CCN(C(=O)OC(C)(C)C)CC1 |  | inconclusive: 10 µM [inhibitor, single point] | 
38 | O=C1CC2(CCN(C(=O)c3ccccc3F)CC2)CN1C/C=C/c1ccccc1 |  | inconclusive: 20 µM [inhibitor, single point] | 
39 | Cc1c(C(=O)Nc2ccc(F)c(Cl)c2)sc2nc3n(c(=O)c12)CCC3 |  | inconclusive: 10 µM [inhibitor, single point] | 

Source: PubChem BioAssay AID1347417 (National Center for Advancing Translational Sciences (NCATS), 2020)
